Data reported in the supplement of paper PMC11417369.
This is one part of the list.

Each sequence was assayed on PfAP2-HC AP2 domain (GST-tagged) (assay: gcPBM binding intensity (ln(normalized median fluorescence intensity)); higher = stronger DNA binding).
Outline: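 In this array assay, P. falciparum DNA-binding domains with a GST tag, expressed in E. coli, were applied for 1 h to primer-extended double-stranded 36-bp intergenic genomic probes and negative controls on an Agilent 4 × 180k array. Bound protein was visualised with Alexa488 anti-GST antibody at 488 nm. Binding intensity is the highest Masliner-normalised natural-log median intensity across replicate spots of either probe orientation.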

| Sequence | gcPBM binding intensity (ln) |
| --- | --- |
| TTTATATTTAAAAGGATGCACTACAAATTCTAAATA | 9.36 |
| TATCCTTATATTTGCACACACACACCCTAAAATGAA [CACACA_site1029] | 10.5 |
| CTACAATATCTTTAAAGTACTTTTATATAACTACCA [XGTACX_site6119] | 9.7 |
| AAGACAAATATGAAGAGTACATTTATATAAAAATTA [XGTACX_site5142] | 9.54 |
| AAAACAAACAGACACACACACATATTTATATTTATA [CACACA_site7681] | 11 |
| TTATATTAAACAAACACACACATATAAATATAAATA [CACACA_site7174] | 10.2 |
| AATATTAGGTTATGTAGTACATAACAATAATTATAC [XGTACX_site5733] | 9.9 |
| TTTTATTTTATTCAATTTTTACTTTTATAAAAATAT [GTGCAC_negctrl_site578] | 9.46 |
| ATGTATATGCAAACATGTACATATATAAACATATAT [XGTACX_site4159] | 9.8 |
| GTGTTGGGAAAAGGCATGCACTTTTTTTTTTTTTTT | 9.8 |
| ATAAAGAATATAAATACACACTTAAATATATATTAT [CACACA_site6071] | 9.83 |
| AAGGAATATGTATATACACACAGGTACATATTTATA [CACACA_site6344] | 10 |
| TAATTTTATATAAATTGTACAAAAATATTTTATTAA [XGTACX_site7166] | 9.41 |
| TAAAATATACAAATTTGTACATATATATGTATGTAT [XGTACX_site1127] | 9.88 |
| TGCAGGTGTTATTCACGTACGCATTTGATTAAAAAA [XGTACX_site7743] | 9.43 |
| ATTAGAAAATAAAATAATAAATAAAATAAAAAAAAA [CACACA_negctrl_site409] | 9.64 |
| ATAAAAACATAAAAATGTACATATATATATATATAT [XGTACX_site7165] | 9.9 |
| AATTCACATGTGAACTAAAAGAATATTATATATATA [CACACA_negctrl_site1632] | 9.55 |
| AAATATATATATAGTACATGCAGTAGATAATTTAAT [TGCATGCA_site299] | 10 |
| ATTAGGTATTTTTTTTGTACATATTATATAATGTGA [XGTACX_site3815] | 9.61 |
| CACAAAAATTTATACACACACATATAAAATATAGAT [CACACA_site6218] | 10.7 |
| TTCACTATACAAAGGTGTACTTAATTTTGTCCCATT [XGTACX_site7483] | 9.7 |
| AGTTATTACACACAAACATGCATTAATATCAAAAAA [TGCATGCA_site63] | 9.84 |

| Sequence | gcPBM binding intensity (ln) |
| --- | --- |
| TTTTTTTTTTTTTTTTGTACATAATTCCATATTTTT [XGTACX_site1789] | 9.18 |
| TGATCTTTACACATATTATATATATATAAAAAAAAA [XGTACX_negctrl_site360] | 9.52 |
| AATCTAGGTATTTATACACACTAAAATAATATACGA [CACACA_site4515] | 9.8 |
| AAAAAAAAAAGAAACACACACATATAGATTTATAAC [CACACA_site6927] | 10.9 |
| ATTTAAATAATATTCACACACAAAATTAAATTTTAA [CACACA_site6246] | 9.75 |
| AAAAAATTAACCGTAACACACACACCGATATATATA [CACACA_site9312] | 10.5 |
| GCTCTAATTAATATTTGTACACACATATTTAACCTA [XGTACX_site6808] | 10 |
| CCCTCAACGAATTTGAGTACACATTTTAAATGATAT [XGTACX_site7763] | 9.41 |
| ATCGCAAGATTAATATAAGGAGAAACGTTTATATAT [GTGCAC_negctrl_site267] | 9.66 |
| TTATAACATATAAACATGTTTCATCTTACGTATTTT [GTGCAC_negctrl_site694] | 9.93 |
| TGTTATATCAATAATATATAATAATACCCTTCTTTT [CACACA_negctrl_site1682] | 9.48 |
| ATATTTAATTTGTATGGTACAGTACGATCTTTCTTT [XGTACX_site5533] | 9.78 |
| ATAAGAATATATAGAGTGCGTTGAAGAATTATAATA | 9.76 |
| AAAAAACATTTGATCTGTACGCATAGACAATTATAT [XGTACX_site960] | 9.57 |
| AATAATATGTTATCTCTTACACATATAAAAAATAAA [XGTACX_negctrl_site370] | 9.53 |
| TAAAAGAAAGCACATACACACACAAAAAAAAAAAAG [CACACA_site8159] | 10.4 |
| AATTAAATGATTTATACATGCATATAAATATAAATA [TGCATGCA_site579] | 9.65 |
| AGTAGAAAAGGAACATGTACGAATTAAAAAAATAAT [XGTACX_site2347] | 9.89 |
| TCTGTAAATATGTATACACACATATATGATCAATAT [CACACA_site3234] | 9.9 |
| ACATATATATATATATATATATATATATTTATTTAT [CACACA_negctrl_site734] | 9.63 |
| TACACCATGATACATACACACAGACATATACACATT [CACACA_site6601] | 10 |
| CAATATATTTGATTTACACACTTACAATGTATTTAA [CACACA_site5632] | 9.79 |
| ATAATCCTTAGACACACACACACACGAATAAATAAA [CACACA_site6364] | 11.3 |

| Sequence | gcPBM binding intensity (ln) |
| --- | --- |
| CGAAAAAATAAAAAAAAAATAAAATAAAATAAATAA [TGCATGCA_negctrl_site278] | 9.58 |
| TTATACTGTACAAAAAGAATAGCAGTATAACAAAAA [CACACA_negctrl_site755] | 9.8 |
| ACAGGATTGGTTCAAACACACATATTATAGGACTAT [CACACA_site6455] | 9.79 |
| AATATGTTTTGTTAGGTTGGTGTTGGTAGAATGTTT [CACACA_negctrl_site1563] | 9.85 |
| AAAAAAAAATCATATTGTACGTAAAAAAAAAAAAAA [XGTACX_site476] | 9.37 |
| AAAAAAAAAAAAAATACACACACACCGATATATATA [CACACA_site8142] | 10.6 |
| ATACATATAATAATATGTACATATAATTATATATAT [XGTACX_site913] | 9.7 |
| AATATAATATACATATGTACATATATATATATATAT [XGTACX_site8218] | 9.77 |
| TATAACACACAATGATGTACATTACATTATTTTTTA [XGTACX_site2076] | 9.71 |
| TTTTCTATATAACAACGTACATTTATTATATTATAA [XGTACX_site6148] | 9.46 |
| ATATATATATATATGTGTACATATTTTTTTGAAGTG [XGTACX_site248] | 9.82 |
| TAATATAAATGAAAGGTGCTTTTGCTTTCTTTTTTT | 9.56 |
| TAATATATTTTTAACATGCACTGTATTTTAATATAT | 9.64 |
| TCTGGATTGGATTACAAGAAAATAAAATATAAAATA [CACACA_negctrl_site122] | 9.35 |
| TATACAAATATATATGCACACACATATATGTATATG [CACACA_site9007] | 10 |
| TATAAAACAAATATATGTACATATCATAGTATAATA [XGTACX_site2965] | 9.75 |
| TAATTAAAGTTATCTACACACCTTTATAGATATATA [CACACA_site7778] | 9.63 |
| ATTATGAATTTAAGACGTACAAAAAATTTTTATTCA [XGTACX_site5682] | 9.53 |
| ACAAGTATTCCTTTTGCACACCTTTCTGCACCTTAT [CACACA_site3873] | 9.97 |
| AAATACTTATTCGTGGTGCAACAATTTTAAAAATTA | 9.49 |
| ATTAAAATAATACGTACACACATGTATAATACATAT [CACACA_site1005] | 9.92 |
| AATAATATATTATATGCATGTGTATAATTTGATATA [TGCATGCA_site1058] | 9.57 |
| TTTGGTTATTTGACCTGTACACATTTAATTATTTTT [XGTACX_site5170] | 9.76 |

| Sequence | gcPBM binding intensity (ln) |
| --- | --- |
| CAAAGGAAATGGTGTACACAATTTTTCCTTTTTCGT [CACACA_site4800] | 9.6 |
| AGCAAGACGGGGTGCACACAAACTAATATGCCGAAT [CACACA_site159] | 9.89 |
| TATTACATAATATATGTACACACGCAAATACTTATA [CACACA_site7994] | 9.77 |
| TAACAACGATACAATTGTACAAATTATATATATATA [XGTACX_site4687] | 10.1 |
| CAAAAAAAGTTATACACACACACACGGATATAAATA [CACACA_site6619] | 10.7 |
| GTATTCATTCCTTGAGTGCAATTGCAATAAATAAAA | 9.68 |
| CATATTAAGATGTGTACACATTTTTATTTTTTTTTT [CACACA_site4425] | 9.78 |
| GAAAAGTATAAAAAACGTACAAGTTTTATTTTCACA [XGTACX_site4604] | 9.58 |
| CCCCTATAAATAGGGTGTACTAATAAATATTTTTAA [XGTACX_site1244] | 9.56 |
| ACGGGCGACACATAAGTGCGCAAAAAAAAAAAAATA [GTGCAC_site9688] | 9.48 |
| TAAAATAAAAAGTTTACACACATATATAACTTTAAT [CACACA_site6456] | 9.76 |
| AAAATACAGAAACACACACACACACCCATATATATA [CACACA_site3559] | 10.7 |
| TTTTATAAAACATGTAGTACATGAAAAAAAAAATTT [XGTACX_site1626] | 9.55 |
| TTATTTTTTGTATGAACACACAACTTAATTATGATG [CACACA_site2448] | 9.98 |
| ATGTTTCTATAGATTTGTACATATTTCATATGAATA [XGTACX_site1053] | 9.7 |
| TCTTTTCTTTTGTGTGTGCACATATAAGCATGAAAC [GTGCAC_site9910] | 9.96 |
| TTTTACAAATATTTCTGTACACATTCTCATATAATT [XGTACX_site1974] | 9.83 |
| TTTTTTAATTAATTACCTTTGAATGTGTATTAGGAC [GTGCAC_negctrl_site651] | 9.37 |
| AAATGACGAAATAAAATCATAAATTAAAATAAATAA [CACACA_negctrl_site655] | 9.65 |
| ATAGCATTTCACAAATGTACATAAAAAAATAAAAAT [XGTACX_site402] | 9.73 |
